Where “and” joins values, the source holds several entries; their conditions need not be identical. Equal entries are not always repeated. Screen size: about 390,000 compounds; about 17,000 (4.4%) were called active. Inconclusive results, whose numbers are uncertain, are shown with a selection of clear calls. The call rests on the fitted dose curve; in most records, active means well fitted inhibition curve with a large enough effect; inconclusive means small, poorly fitted or top-dose-only effect; inactive means no such curve, though single readings can be large or run the other way. Potencies of inconclusive entries are doubtful fits and often do not repeat.
What follows are compounds tested against Lysine-specific demethylase 4A (Homo sapiens) (UniProt O75164) (assay: qHTS Assay for Inhibitors of JMJD2A-Tudor Domain). Conditions: AlphaScreen JMJD2A-Tudor / H3K4me3 peptide binding; activity change, negative = inhibition: at 114 µM (top of the series).
Chain of UniProt O75164 (O75164 whole entry, looked up, the tested form may be a part): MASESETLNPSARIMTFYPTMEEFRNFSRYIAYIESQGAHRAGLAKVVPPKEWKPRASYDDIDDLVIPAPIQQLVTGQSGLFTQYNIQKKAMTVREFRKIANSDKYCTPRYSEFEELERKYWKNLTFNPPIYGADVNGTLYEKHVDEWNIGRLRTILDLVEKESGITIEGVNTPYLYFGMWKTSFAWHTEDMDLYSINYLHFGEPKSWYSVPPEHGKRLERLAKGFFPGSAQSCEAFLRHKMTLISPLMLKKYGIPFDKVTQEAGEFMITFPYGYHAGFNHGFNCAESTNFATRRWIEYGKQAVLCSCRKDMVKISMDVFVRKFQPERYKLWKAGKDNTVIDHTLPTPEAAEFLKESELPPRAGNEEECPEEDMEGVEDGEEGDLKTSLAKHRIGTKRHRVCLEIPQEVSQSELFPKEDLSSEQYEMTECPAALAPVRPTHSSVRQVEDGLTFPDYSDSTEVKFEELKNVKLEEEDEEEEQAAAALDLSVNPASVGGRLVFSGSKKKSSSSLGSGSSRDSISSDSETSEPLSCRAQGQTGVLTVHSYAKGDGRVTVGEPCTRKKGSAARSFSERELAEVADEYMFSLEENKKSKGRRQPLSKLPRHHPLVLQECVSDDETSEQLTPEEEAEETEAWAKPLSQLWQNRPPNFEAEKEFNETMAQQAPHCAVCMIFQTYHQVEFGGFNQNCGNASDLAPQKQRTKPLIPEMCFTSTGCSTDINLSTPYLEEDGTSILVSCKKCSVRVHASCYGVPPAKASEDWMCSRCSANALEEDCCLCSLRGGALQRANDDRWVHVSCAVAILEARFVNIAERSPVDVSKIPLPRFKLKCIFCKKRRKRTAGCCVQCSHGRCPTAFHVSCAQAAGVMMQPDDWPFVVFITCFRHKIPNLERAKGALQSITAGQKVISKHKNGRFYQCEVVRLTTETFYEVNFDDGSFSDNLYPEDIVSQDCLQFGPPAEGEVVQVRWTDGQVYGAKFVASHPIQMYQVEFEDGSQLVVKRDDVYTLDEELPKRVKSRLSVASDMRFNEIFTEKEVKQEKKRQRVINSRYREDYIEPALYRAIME
In the case of CSc1ccc(CCNC(=O)c2cc(C)nc3c2c(C)nn3-c2ccccc2)cc1, the “activity change, negative = inhibition” value is reported as inactive: -0.324%. In the case of CCn1c(SCC(=O)c2ccc(O)c(O)c2)nnc1-c1ccccc1, the Potency is reported as inconclusive: 56.2 µM [inhibitor, partial curve]. With N#Cc1nc(-c2ccc(OCc3ccccc3)cc2)oc1NCCCN1CCOCC1 the Potency was active: 35.5 µM. CC(C)OC(=O)c1ccc(N2CCN(c3ccc(F)cc3)CC2)nc1 was tested, and the Potency was inconclusive: 14.1 µM [inhibitor, full curve, poor fit]. For COc1ccc(-c2nnc(SCC(=O)NCCc3ccc(OC)c(OC)c3)nc2-c2ccc(OC)cc2)cc1, the Potency was inconclusive: 20 µM [inhibitor, full curve]. CCCCc1nnc(NC(=O)c2ccc(S(=O)(=O)N3CCOCC3)cc2)s1 was tested, and the Potency was inconclusive: 39.8 µM [inhibitor, single point]. For Cc1ccc(C)c(N2CCN(C(=O)C3CCCN(S(=O)(=O)c4c(C)noc4C)C3)CC2)c1 (stereo not given), the Potency was inconclusive: 50.1 µM [inhibitor, partial curve]. With CCC1CN(S(=O)(=O)c2cc(-c3cc(C)no3)ccc2C)c2cc(C)ccc2O1 (stereo not given) the “activity change, negative = inhibition” value was inactive: -13.3%. CC(=O)NS(=O)(=O)c1ccc(N=c2ssc3c2-c2cc(C)c(C)cc2NC3(C)C)cc1 was tested, and the Potency was inconclusive: 50.1 µM [inhibitor, partial curve]. Cc1ccccc1Sc1ncccc1[N+](=O)[O-] was tested, and the Potency was inconclusive: 56.2 µM [inhibitor, partial curve]. O=C1c2cc([N+](=O)[O-])cc3cc([N+](=O)[O-])cc(c23)C(=O)N1c1ccccn1 was tested, and the Potency was inconclusive: 20 µM [inhibitor, full curve]. For Cn1c(C(=O)N(Cc2ccccc2)Cc2ccccn2)cc2sccc21, the Potency was inconclusive: 50.1 µM [inhibitor, partial curve]. Clc1cnc(N/N=C/c2ccncc2)c(Cl)c1 was tested, and the “activity change, negative = inhibition” value was inactive: -17.5%. In the case of C(=C\n1nnc2ccccc21)/c1ccc[nH]1, the Potency is reported as inconclusive: 50.1 µM [inhibitor, partial curve]. Cc1c(N=C2NN=C(c3c[nH]c4ccccc34)CS2)c(=O)n(-c2ccccc2)n1C was tested, and the Potency was inconclusive: 100 µM [inhibitor, single point]. With Cc1ccccc1Sc1ccc([N+](=O)[O-])cn1 the Potency was inconclusive: 50.1 µM [inhibitor, partial curve]. For Cc1nc2c(-c3ccc(F)cc3)c(C)nn2c(C)c1CCC(=O)N1CCN(c2ccccc2)CC1, the Potency was inconclusive: 3.98 µM [inhibitor, single point]. For Cc1ccc(CN2CCN(/N=C/c3ccc(C(F)(F)F)cc3)CC2)c(C)c1, the Potency was inconclusive: 22.4 µM [inhibitor, full curve, poor fit]. In the case of CCC(c1nnnn1Cc1ccc2c(c1)OCO2)N1CCN(c2ccc(OC)cc2)CC1 (stereo not given), the Potency is reported as inconclusive: 50.1 µM [inhibitor, partial curve]. For CC(C)c1ccc(S(=O)(=O)c2ccc(NN)cc2)cc1, the “activity change, negative = inhibition” value was inactive: -11.9%. CCc1ccc(CNC(=O)c2nn(-c3ccc(C)cc3)c(=O)c3c2c2ccccc2n3C)cc1 was tested, and the Potency was inconclusive: 0.562 µM [inhibitor, full curve, poor fit]. For CCOC(=O)Nc1ccc2c(c1)N(CCCN(C)C)c1ccccc1CC2, the Potency was inconclusive: 35.5 µM [inhibitor, partial curve]. For COC(=O)c1ccc(CN(Cc2ccc(C(=O)OC)o2)C(C)(C)C)o1, the “activity change, negative = inhibition” value was inactive: -4.05%. For Cc1cc(OCC(=O)Nc2ncn[nH]2)ccc1Cl, the Potency was “inactive and inconclusive: 3.16 µM [inhibitor, full curve, poor fit]”. C/C(=N\NC(=O)c1nnn(-c2nonc2N)c1CN1CCc2ccccc21)c1ccccc1O was tested, and the Potency was inconclusive: 11.2 µM [inhibitor, partial curve]. For Cc1ccc(S(=O)(=O)N(CC(=O)Nc2ccc3c(c2)OCO3)c2cc(Cl)cc(Cl)c2)cc1, the Potency was inconclusive: 50.1 µM [inhibitor, partial curve]. CC1(C)Cc2c(sc3c2c(=N)n(Cc2ccco2)c(=O)n3CC(=O)Nc2ccccc2)CO1 was tested, and the Potency was inconclusive: 79.4 µM [inhibitor, partial curve]. For CCN(CCCNC(=O)C1CCC(=O)N1Cc1ccc(C)cc1)c1cccc(C)c1 (stereo not given), the Potency was inconclusive: 79.4 µM [inhibitor, single point]. CCCCNCCS(=O)(=O)NCc1ccccc1OC was tested, and the Potency was inconclusive: 100 µM [inhibitor, single point]. With CC(=O)c1sc2nc(-c3cccs3)ccc2c1N the Potency was active: 25.1 µM. In the case of Nc1c(C(=O)O)ccc2c1C(=O)c1ccccc1C2=O, the Potency is reported as inconclusive: 56.2 µM [inhibitor, partial curve]. With Cc1cc(OCC(=O)NCCc2cccc(F)c2)c2c(C)cc(=O)oc2c1 the “activity change, negative = inhibition” value was inactive: -2.78%. In the case of O=C(Nc1cccc(S(=O)(=O)N2CCOCC2)c1)C1CCCCN1S(=O)(=O)c1ccccc1 (stereo not given), the Potency is reported as inconclusive: 3.98 µM [inhibitor, full curve]. CCOC(=O)c1cc2c(=O)n3ccccc3nc2n(CCOC)c1=NC(=O)c1c(-c2ccccc2Cl)noc1C was tested, and the “activity change, negative = inhibition” value was inactive: 4.78%. With CCc1nc2nc(C)c(NS(=O)(=O)c3ccc(C(C)(C)C)cc3)c(=O)n2[nH]1 the “activity change, negative = inhibition” value was inactive: -13%. With O=C(CNC(=O)c1ccc(F)cc1)OCc1cc(=O)n2nc(C3CC3)sc2n1 the Potency was inconclusive: 89.1 µM [inhibitor, single point]. With CC1Cc2c([nH]c3ccccc23)C2c3ccccc3CN12 (stereo not given) the Potency was inconclusive: 31.6 µM [inhibitor, single point]. With COc1ccc(Cc2nc(-c3cccs3)no2)cc1OC the “activity change, negative = inhibition” value was inactive: -2.13%. For N#CCC(=O)Nn1c(=S)[nH]c2ccccc2c1=O, the Potency was inconclusive: 2.24 µM [inhibitor, partial curve, poor fit]. In the case of CC(C)Oc1cccc(-c2cc(C(=O)NC(=S)N(C)c3ccccc3C(=O)O)c3ccccc3n2)c1, the “activity change, negative = inhibition” value is reported as inactive: -27.3%. For COC(=O)CN1C(=O)CSc2ccc(S(=O)(=O)Nc3cc(C)ccc3C)cc21, the “activity change, negative = inhibition” value was inactive: -13.4%. For CC1Cc2ccccc2N1C(=S)NC(=O)c1cccc(Br)c1 (stereo not given), the Potency was inconclusive: 39.8 µM [inhibitor, partial curve]. With COc1ccccc1-n1c(-c2cc(-c3ccco3)[nH]n2)n[nH]c1=S the Potency was active: 15.8 µM. For CN1CCN(CCCCOc2ccccc2C=O)CC1, the Potency was active: 3.98 µM. For COc1ccc2oc(=O)c(C(=O)N3CCN(C(=O)c4ccco4)CC3)cc2c1, the Potency was active: 79.4 µM. For Cc1ccc(Nc2nc(CSc3nnnn3C)cs2)cc1, the Potency was inconclusive: 89.1 µM [inhibitor, partial curve, poor fit]. In the case of Cc1cc(C)c(NC(=O)c2sc3nc(C)cc(C)c3c2NC(=O)c2ccccc2)c(C)c1, the “activity change, negative = inhibition” value is reported as inactive: -10.4%. In the case of Cc1cccc(-n2c(C)cc(/C=N/O)c2C)c1, the Potency is reported as inconclusive: 56.2 µM [inhibitor, partial curve]. With CCCc1cc(-c2[nH]ncc2-c2ccc(C(=O)OCC)o2)c(O)cc1O the Potency was inconclusive: 25.1 µM [inhibitor, full curve]. For O=C(NC(=S)Nc1ccc(N2CCOCC2)cc1)c1cccc(Cl)c1, the Potency was inconclusive: 56.2 µM [inhibitor, single point]. For O=C(CCC(=O)N1CC2CCCN2c2ccccc21)NCc1ccccc1 (stereo not given), the “activity change, negative = inhibition” value was inactive: -30.7%. In the case of CC(=O)Nc1sc(N/N=C\c2cccc(Cl)c2)nc1-c1cccs1, the Potency is reported as inconclusive: 79.4 µM [inhibitor, partial curve]. In the case of COc1ccc(CNC(=O)c2ccc3c(c2)N(C)C(=O)C2CCCCN32)cc1OC (stereo not given), the “activity change, negative = inhibition” value is reported as inactive: -13.4%. For CC1CN(Cc2c(O)ccc3c(=O)c(-c4ccccc4Cl)coc23)CC(C)O1 (stereo not given), the “activity change, negative = inhibition” value was inactive: -9.56%. In the case of Oc1ccc(Cc2ccccc2)c2cccnc12, the Potency is reported as active: 79.4 µM. O=[N+]([O-])c1ccc(N=Cc2c(O)ccc3ccccc23)cc1 was tested, and the Potency was inconclusive: 4.47 µM [inhibitor, partial curve]. In the case of CNC(=O)C(=O)Nc1cc2c3c(c1)CCN3C(=O)CC2, the “activity change, negative = inhibition” value is reported as inactive: -7.25%. With Cn1cc(CN2CCCC(C(=O)Nc3cccc(-c4cc5ccccc5[nH]4)c3)C2)cn1 (stereo not given) the Potency was inconclusive: 56.2 µM [inhibitor, partial curve]. In the case of CCOC(=O)C1=C(C)N(c2ccc(OCC)cc2)C(=O)/C1=C\c1ccco1, the Potency is reported as active: 22.4 µM. For Cc1nn(-c2ccccc2)c(Cl)c1/C=C1\SC(=S)N(C)C1=O, the Potency was inconclusive: 5.62 µM [inhibitor, partial curve, poor fit]. In the case of Cc1cccc(C)c1NC(=O)CNc1ncnc2sc(C)c(C)c12, the “activity change, negative = inhibition” value is reported as inactive: 9.09%. COc1ccc(CCNc2ncnc3c2c(C)c(C)n3CCCN(C)C)cc1OC was tested, and the Potency was inconclusive: 25.1 µM [inhibitor, partial curve]. With O=C(COC(=O)C12CC3CC(CC(C3)C1)C2)NCC1CCCO1 (stereo not given) the “activity change, negative = inhibition” value was inactive: -12.1%. For CC1CC(C)CN(c2nc(N(C)c3ccccc3)nc(N)c2[N+](=O)[O-])C1 (stereo not given), the Potency was active: 39.8 µM. CCOc1ccc(-c2nnc(N3CCOCC3)c3ccccc23)cc1 was tested, and the “activity change, negative = inhibition” value was inactive: 1.67%. For Cc1c(C)n(C)c2ccc(C(=O)NCc3cccs3)cc12, the Potency was inconclusive: 56.2 µM [inhibitor, partial curve, poor fit]. For COc1ccccc1CNC(=O)COC(=O)c1ccc2c(=O)n3c(nc2c1)CCCCC3, the “activity change, negative = inhibition” value was inactive: -14.5%. In the case of O=C(NCCCN1CCN(c2cccc(Cl)c2)CC1)Nc1ccccc1C(F)(F)F, the Potency is reported as inconclusive: 79.4 µM [inhibitor, partial curve, poor fit]. With CCN(C(=O)C1CCCCC1)c1nnc(-c2cccnc2)s1 the Potency was inconclusive: 79.4 µM [inhibitor, single point]. With COc1ccc(C(=O)/C=C/c2ccc(O)cc2)c(O)c1C/C=C(\C)CCC=C(C)C the Potency was active: 28.2 µM.
Further: nearly all actives have a fitted effect of over 50% in size.
On the % scale 0 is the no-effect control and ±100 the full control effect; potency means the concentration at half of the fitted maximal effect; tags describe the fitted curve by direction and shape.
